Screen size: about 310,000 compounds; about 14,000 (4.5%) showed an effect of 50% or more. The effect is printed as a negative number. The list shows a part of the results.
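Note: peak tail current of the secondary pulse compared with the same well before compound.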

The experiment deals with human ether-à-go-go-related gene (hERG) potassium channel (human, UniProt Q12809). As to the kind of experiment: primary screen, population patch clamp on CHO cells stably expressing hERG.
human ether-à-go-go-related gene (hERG) potassium channel, sequence (Q12809 whole entry, looked up): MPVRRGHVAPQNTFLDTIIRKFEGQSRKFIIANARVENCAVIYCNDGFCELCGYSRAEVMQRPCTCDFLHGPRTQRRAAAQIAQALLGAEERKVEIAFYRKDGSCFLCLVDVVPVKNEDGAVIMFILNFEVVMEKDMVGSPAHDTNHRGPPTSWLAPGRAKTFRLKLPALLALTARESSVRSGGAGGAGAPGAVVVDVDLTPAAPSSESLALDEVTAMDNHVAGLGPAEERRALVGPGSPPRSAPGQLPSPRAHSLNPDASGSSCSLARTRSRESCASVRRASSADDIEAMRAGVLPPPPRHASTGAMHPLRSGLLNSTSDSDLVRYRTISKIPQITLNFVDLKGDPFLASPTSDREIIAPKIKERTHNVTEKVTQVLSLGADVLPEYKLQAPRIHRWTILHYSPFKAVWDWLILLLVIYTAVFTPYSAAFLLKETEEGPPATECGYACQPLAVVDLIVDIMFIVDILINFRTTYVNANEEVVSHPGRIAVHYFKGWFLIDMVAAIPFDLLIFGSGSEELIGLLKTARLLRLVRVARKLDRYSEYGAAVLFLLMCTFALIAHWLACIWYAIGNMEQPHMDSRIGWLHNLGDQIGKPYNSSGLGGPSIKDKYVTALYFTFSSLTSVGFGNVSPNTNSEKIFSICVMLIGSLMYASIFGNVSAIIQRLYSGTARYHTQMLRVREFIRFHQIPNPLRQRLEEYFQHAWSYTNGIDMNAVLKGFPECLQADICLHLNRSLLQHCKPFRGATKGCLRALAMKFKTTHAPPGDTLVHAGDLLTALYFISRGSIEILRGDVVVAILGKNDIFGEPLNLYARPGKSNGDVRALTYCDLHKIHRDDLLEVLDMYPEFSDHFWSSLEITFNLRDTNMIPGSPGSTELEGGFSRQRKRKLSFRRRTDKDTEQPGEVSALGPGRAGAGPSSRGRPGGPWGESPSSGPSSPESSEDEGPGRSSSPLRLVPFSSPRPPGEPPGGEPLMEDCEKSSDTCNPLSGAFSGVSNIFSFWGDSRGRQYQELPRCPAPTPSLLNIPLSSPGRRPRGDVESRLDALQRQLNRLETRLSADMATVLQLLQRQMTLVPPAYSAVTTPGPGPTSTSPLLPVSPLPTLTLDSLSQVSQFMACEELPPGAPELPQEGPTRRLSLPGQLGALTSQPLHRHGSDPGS
Take `CCOC(=O)C1(S(=O)(=O)c2ccccc2)CCN(Cc2ccc(Cl)cc2)CC1`: the “hERG current change (%, negative = inhibition) at 10uM” value was -7.54%.
Regarding `CC(C)CC(=O)c1c[nH]c(C(=O)NCCCn2ccnc2)c1`, the “hERG current change (%, negative = inhibition) at 10uM” value stood at 8.06%.
For `Cc1[nH]c(C)c(S(=O)(=O)Nc2ccc(F)cc2Cl)c1C(=O)N1CCCC1`, the “hERG current change (%, negative = inhibition) at 10uM” value was found to be 9.97%.
Take `COc1ccc(C(=O)Nc2cc(-c3ccc(C)cc3)no2)cc1`: the “hERG current change (%, negative = inhibition) at 10uM” value was 19.8%.
Consider `NC(=O)c1nc(C2CCCCC2)nc2c1[nH]c(=O)n2-c1ccc(F)cc1`, for which the “hERG current change (%, negative = inhibition) at 10uM” value is 3.03%.
Take `O=C(CSc1nc(-c2ccccc2)cs1)Nc1nccs1`: the “hERG current change (%, negative = inhibition) at 10uM” value was -8.07%.
On to `Cc1ccc(-n2nc3c(c2NC(=O)C(C)(C)C)CS(=O)(=O)C3)cc1`, for which the “hERG current change (%, negative = inhibition) at 10uM” value amounted to 15.8%.
With `O=C(O)c1ccc(/C=N\Nc2ccccn2)cc1`, the “hERG current change (%, negative = inhibition) at 10uM” value worked out at 20.3%.
Turning to `CCN1CCC(NCCc2ccc(F)cc2)CC1`, the “hERG current change (%, negative = inhibition) at 10uM” value is -0.893%.
As to `S=C(Nc1cccc(Cl)c1)Nc1ccc2cn[nH]c2c1`, the “hERG current change (%, negative = inhibition) at 10uM” value was -15.5%.
For `O=C(Nc1ccc2cn[nH]c2c1)c1c(Cl)cccc1Cl`, the “hERG current change (%, negative = inhibition) at 10uM” value is on record as -2.04%.
In the case of `CCN(C(=O)COC(=O)/C=C/c1cnc2ccccc2n1)C1CCS(=O)(=O)C1` (centres unmarked), the “hERG current change (%, negative = inhibition) at 10uM” value is -9.37%.
As to `Cc1c2c(n3c(nc4ccccc43)c1C#N)N(CCN(C)C)CC2`, the “hERG current change (%, negative = inhibition) at 10uM” value was -21.4%.
With `COc1cc(OC)cc(C(=O)NC2CC(C)(C)NC(C)(C)C2)c1.Cl`, the “hERG current change (%, negative = inhibition) at 10uM” value came out at 5.85%.
For `Cc1ccc(N2CC(C)Cn3c2nc2c3c(=O)[nH]c(=O)n2C)cc1C` (centres unmarked), the “hERG current change (%, negative = inhibition) at 10uM” value was -10.9%.
For the compound `Cc1nn(Cc2ccccc2)c(Cl)c1C(=O)NCCc1ccc(Cl)cc1`, the “hERG current change (%, negative = inhibition) at 10uM” value is -0.126%.
Consider `Cc1ccc(C(=O)NCC(=O)O)o1`, for which the “hERG current change (%, negative = inhibition) at 10uM” value is -5.14%.
As to `CC(=O)Nc1ccc(NC(=O)COc2ccc(Cl)cc2Cl)cc1`, the “hERG current change (%, negative = inhibition) at 10uM” value was found to be 7.98%.
For `Nc1nc(N2CCN(C(c3ccccc3)c3ccccc3)CC2)n[nH]1`, the “hERG current change (%, negative = inhibition) at 10uM” value came out at 15.4%.
Take `O=C(c1ccc(F)cc1)N1C2CCC1CC(O)(c1ccc(F)cc1)C2` (centres unmarked): the “hERG current change (%, negative = inhibition) at 10uM” value is on record as -20.6%.
In the case of `Cn1cc(S(=O)(=O)Nc2ccc(F)cc2F)c(=O)n(C)c1=O`, the “hERG current change (%, negative = inhibition) at 10uM” value worked out at 5.72%.
As for `COC(=O)c1ccc(NC(=O)c2ccc(NS(=O)(=O)c3cccc4cccnc34)cc2)cc1`, the “hERG current change (%, negative = inhibition) at 10uM” value came to 12.8%.
As to `O=C(NCCCO)c1c(O)c2cccc3c2n(c1=O)CCC3`, the “hERG current change (%, negative = inhibition) at 10uM” value is recorded as -11.3%.
On to `O=C1CC(c2ccccc2)Cc2nc3nc(C(F)(F)F)nn3cc21` (centres unmarked), for which the “hERG current change (%, negative = inhibition) at 10uM” value came out at 14.5%.
With `O=C(N/N=C/c1ccccc1OC(=O)N1CCOCC1)c1cccs1`, the “hERG current change (%, negative = inhibition) at 10uM” value turned out to be 16.7%.
The result for `O=C1CC(c2c(F)cccc2Cl)C(n2cncn2)C(O)=C1C1NCCc2ccccc21` (centres unmarked) reads 18.3%.
The same measure for `CC(C)c1ccc(/C=C/C(=O)Nc2nn[nH]n2)cc1`: 15%.
With `N/C(=N\OC(=O)c1cc(-c2ccccc2)nc2ccccc12)c1ccncc1`, the “hERG current change (%, negative = inhibition) at 10uM” value is on record as -11.2%.
As for `CCOc1ccc(/C(=N\O)C(C)NO)cc1` (centres unmarked), the “hERG current change (%, negative = inhibition) at 10uM” value was -0.79%.
Consider `CCn1c(CNC(=O)Cc2ccc(OC)cc2)nnc1SCC(=O)Nc1nccs1`, for which the “hERG current change (%, negative = inhibition) at 10uM” value was -5.75%.
Regarding `C/C(=N\S(=O)(=O)c1ccc(C)cc1)Nc1cc(C(C)C)c(O)cc1C`, the “hERG current change (%, negative = inhibition) at 10uM” value is -5.31%.
Consider `O=C(CN1CCN(Cc2ccc(F)cc2Cl)C1=O)NCCCN1CCOCC1`, for which the “hERG current change (%, negative = inhibition) at 10uM” value is listed as -2.72%.
With `CC(=O)Nc1ccc(S(=O)(=O)N2CCN(c3cnn(C)c(=O)c3Cl)CC2)cc1`, the “hERG current change (%, negative = inhibition) at 10uM” value is -4.1%.
As to `CCOC(=O)C1=C(C)N(C)C(=O)NC1c1c(O)ccc2ccccc12` (centres unmarked), the “hERG current change (%, negative = inhibition) at 10uM” value is 8.89%.
For the compound `C#CCOCCOCCOCCNc1nc(N2CCN(C(=O)[C@H]([C@@H](C)CC)n3cc(CCCC[NH3+])nn3)CC2)nc(N2CCN(C(=O)[C@H](CCCC[NH3+])n3cc(CCC(=O)O)nn3)CC2)n1.[Cl-]`, the “hERG current change (%, negative = inhibition) at 10uM” value is 5.05%.
As for `COc1cc(Cl)cc(C2NC(=S)NC(c3ccccc3)=C2C(C)=O)c1OCC(=O)O` (centres unmarked), the “hERG current change (%, negative = inhibition) at 10uM” value came out at 18.4%.
The same measure for `Cc1ccc(S(=O)(=O)Nc2cc(C)c(O)cc2C)cc1`: 8.21%.
As for `C=CCN(c1ccccc1)S(=O)(=O)c1cc2c(cc1C)N(C)CCO2`, the “hERG current change (%, negative = inhibition) at 10uM” value was -19.3%.
Regarding `COc1ccc(CCC(=O)Nc2ncc(C)s2)cc1OC`, the “hERG current change (%, negative = inhibition) at 10uM” value is recorded as 16.2%.
On to `CCOC(=O)N1CCC(NC(=O)c2oc3c(F)cccc3c2C)CC1`, for which the “hERG current change (%, negative = inhibition) at 10uM” value is reported as -15.4%.
`COC(=O)[C@@]1(Cc2ccc(F)cc2)[C@H]2c3cc(C(=O)N(C)C)n(Cc4ccc(OC(F)(F)F)cc4)c3C[C@H]2CN1C(=O)c1ccccc1`: the “hERG current change (%, negative = inhibition) at 10uM” value was 2.51%.
As for `C=CCn1c(C(C)NC(=O)CC)nc2ccccc21` (centres unmarked), the “hERG current change (%, negative = inhibition) at 10uM” value came to 10.6%.
For `Cc1ccc(C(=O)Nc2nc(=O)n(C(=O)c3ccccc3C)s2)cc1`, the “hERG current change (%, negative = inhibition) at 10uM” value came to 34.3%.
For the compound `Cc1cc(C(C)(C)C)ccc1OCCN(C)C`, the “hERG current change (%, negative = inhibition) at 10uM” value is listed as -7.47%.
For the compound `O=[N+]([O-])/C=C/c1cn(Cc2ccc(F)cc2)c2ccccc12`, the “hERG current change (%, negative = inhibition) at 10uM” value worked out at 6.87%.
As for `CC(=O)C1=C(c2ccccc2)OC(N)=C(C#N)C1c1ccccc1C` (centres unmarked), the “hERG current change (%, negative = inhibition) at 10uM” value was 2.19%.
With `Cc1cccc(C)c1NC(=O)C(Cl)=C(Cl)Cl`, the “hERG current change (%, negative = inhibition) at 10uM” value was -16.9%.
As to `O=C(NCCCN1CCCC1=O)c1sc2ccccc2c1Cl`, the “hERG current change (%, negative = inhibition) at 10uM” value is listed as -7.37%.
Regarding `CCc1nc(N=Nc2c(O)[nH]c3ccccc23)c2c3c(sc2n1)CCC3`, the “hERG current change (%, negative = inhibition) at 10uM” value is 13.7%.
The same measure for `COc1ccccc1C1(O)CCN(C(=O)c2cccs2)CC1`: 1.95%; for `COc1ccc(NC(=O)CCS(=O)(=O)c2ccccc2Cl)cc1S(=O)(=O)Nc1ccc(Cl)cc1`: 8.4%; for `CC(C)OC(=O)C(CC(=O)O)NCc1ccccc1` (centres unmarked): -3.47%.
The result for `CCOc1ccc2nc(N3CCCC(C(=O)NCCCN4CC(C)CC(C)C4)C3)sc2c1` (centres unmarked) reads -48.8%.
As to `CC(C)Nc1c([N+](=O)[O-])c(=O)oc2ccccc12`, the “hERG current change (%, negative = inhibition) at 10uM” value was determined as 10.1%.
The same measure for `COc1ccc(Nc2ncnc3scc(-c4ccc(OC)cc4)c23)cc1`: -3.22%; for `O=C1CCC2c3ccc4ccccc4c3CCN12` (centres unmarked): -7.9%.
The result for `FC(F)C(F)(F)c1cc(-c2ccccc2)n[nH]1` reads 3.21%; that for `CCCNC(=O)C1CC(=O)N(c2ccc(OCC)cc2)C1` (centres unmarked), -10.7%; that for `CN(c1ccc(Cl)cc1)c1cc(=O)n(C)c2ccccc12`, -51.8%.
The result for `Cc1ccc2oc(C(=O)N(C)Cc3cnccn3)c(C)c2c1` reads 2.42%; that for `CN(C)CCNC=C(C(=O)Nc1ccc(Cl)cc1Cl)C(=O)Nc1ccc(Cl)cc1Cl`, 18.8%; that for `COC(=O)c1cc(C(=O)OC)n(Cc2ccc(C)cc2)c1C`, -44.2%.
Consider `COc1cc(CC(=O)N2CCc3ccccc32)cc(OC)c1OC`, for which the “hERG current change (%, negative = inhibition) at 10uM” value was determined as 3.2%.
As for `Nn1c(COc2ccccc2)nnc1SCC(=O)O`, the “hERG current change (%, negative = inhibition) at 10uM” value is on record as 1.79%.
`O=C1CC(N2CCN(c3nc4ccccc4s3)CC2)C(=O)N1Cc1cccs1` (centres unmarked): the “hERG current change (%, negative = inhibition) at 10uM” value was -62.3%.
The result for `c1ccc(N2CCN(c3ccccc3)C2c2ccncc2)cc1` reads -9.04%; that for `CCOc1cc(/C=C(\C#N)C(=O)NCc2cccnc2)ccc1O`, -8.66%; that for `COc1ccccc1CNC(=O)C1CCN(S(=O)(=O)c2ccc(N3CCCC3=O)cc2)CC1`, -4.97%.
The same measure for `COc1ccc(C(CNS(=O)(=O)c2ccc(F)cc2)N2CCN(C)CC2)cc1` (centres unmarked): -32.5%; for `CCOC(=O)/C(C(C)=O)=C1\OC(=O)c2ccccc21`: 13.2%; for `CCCSc1nc2c(c(=O)n1CC)SC(C)C2` (centres unmarked): -17.5%.
The result for `CCOc1ccc(CCNC(=O)CSc2nnnn2C)cc1OCC` reads 3.57%; that for `CCn1c(=NC(=O)CS(=O)(=O)c2ccccc2)sc2cccc(OC)c21`, -16.9%.
On to `CCN(CC)CCCNC(=O)C(C)n1c2ccccc2c2nc(=O)cc(C)n21` (centres unmarked), for which the “hERG current change (%, negative = inhibition) at 10uM” value worked out at 7.23%.
With `CCCC1Cc2c(sc3nc(SC)nc(N)c23)CO1` (centres unmarked), the “hERG current change (%, negative = inhibition) at 10uM” value is on record as 4.16%.
With `CCOC(=O)c1cccc(-c2ccc(C=O)o2)c1`, the “hERG current change (%, negative = inhibition) at 10uM” value is -0.133%.
In the case of `CNC(=O)CN(C)S(=O)(=O)c1ccc(OC)c(Cl)c1`, the “hERG current change (%, negative = inhibition) at 10uM” value amounted to 6.65%.
The same measure for `CC(C)CNC(=O)CO/N=C/c1ccccc1Cl`: 1.45%.
For the compound `CC(=O)C1=C(O)C(=O)N(c2nccs2)C1c1ccccc1` (centres unmarked), the “hERG current change (%, negative = inhibition) at 10uM” value came to 2.24%.
Regarding `CCCOc1ccc(/C=C/c2[nH]c(=O)[nH]c(=O)c2[N+](=O)[O-])cc1OCC`, the “hERG current change (%, negative = inhibition) at 10uM” value is -1.51%.
With `CCN(CC)S(=O)(=O)c1cccc(-c2cn3cccnc3n2)c1`, the “hERG current change (%, negative = inhibition) at 10uM” value is on record as -26.1%.
`CCN(CC)S(=O)(=O)c1cc(C(=O)O)ccc1Cl`: the “hERG current change (%, negative = inhibition) at 10uM” value is 11%.
Turning to `O=C1CCC(=O)N1c1ccc(S(=O)(=O)Nc2ccc(Br)cc2)cc1`, the “hERG current change (%, negative = inhibition) at 10uM” value was 10.2%.
The result for `COc1ccc(S(=O)(=O)N2N=C(c3cccc(NS(C)(=O)=O)c3)CC2c2ccco2)cc1` (centres unmarked) reads -3.61%; that for `Cc1ccc(N(CC(=O)N2CCOCC2)S(C)(=O)=O)cc1Cl`, -1.3%; that for `O=C(N/N=C/c1ccc(O)c2ccccc12)c1cccnc1`, 20.9%.
The same measure for `COC(=O)c1c(-c2ccccc2)csc1NC1=NS(=O)(=O)c2ccccc21`: 20%; for `Cc1noc(C)c1COc1cccc(C(=O)Nc2ccc(OCc3ccccc3)cc2)c1`: 6.49%; for `CC(=O)NC(Cc1cc(C)ccc1C)C(=O)N1CCN(C(=O)c2ccccc2Br)CC1` (centres unmarked): -0.358%.

These data come from paper PMC4336329 (PLoS ONE, 2015).
